Measurements from PubChem BioAssay AID602310 (National Center for Advancing Translational Sciences (NCATS), 2012).
About 310 (0.076%) of roughly 410,000 compounds were called active. The inconclusive results got no clear call from the source; some entries with a clear call stand among them for comparison. The call rests on the fitted dose curve; in most records, active means well fitted curve in the direction sought with a large enough effect; inconclusive means small, poorly fitted or top-dose-only effect; inactive means flat fitted curve, though single readings scatter. Where the call is inconclusive, the potency comes from a doubtful curve fit.

These molecules were tested against DNA dC->dU-editing enzyme APOBEC-3G (Homo sapiens) (UniProt Q9HC16) (assay: qHTS for Inhibitors of Vif-A3G Interactions: qHTS). Conditions: HeLa A3G-eYFP + Vif (tagged APOBEC3G with the HIV-1 protein that degrades it), YFP fluorescence, overnight; series mostly up to 46.1 µM; activity, negative = active: at the top concentration.
UniProt Q9HC16, sequence (Q9HC16 whole entry, looked up): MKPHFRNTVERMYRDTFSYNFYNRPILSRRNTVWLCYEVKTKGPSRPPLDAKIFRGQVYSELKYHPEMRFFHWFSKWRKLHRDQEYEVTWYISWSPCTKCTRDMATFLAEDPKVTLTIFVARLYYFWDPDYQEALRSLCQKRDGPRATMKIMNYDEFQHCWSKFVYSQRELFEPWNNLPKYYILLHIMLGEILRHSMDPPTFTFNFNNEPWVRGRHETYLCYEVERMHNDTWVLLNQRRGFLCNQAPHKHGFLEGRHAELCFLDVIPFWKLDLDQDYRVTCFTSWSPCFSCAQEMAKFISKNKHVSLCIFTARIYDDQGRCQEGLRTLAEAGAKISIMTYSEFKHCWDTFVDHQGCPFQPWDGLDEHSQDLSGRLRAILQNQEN
Procedure, shortened: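 HeLa cells stably expressing Vif and C-terminally eYFP-tagged A3G, seeded overnight at 37 deg C, then exposed to compound by pintool overnight at 37 deg C. Rise in yellow fluorescence (Ex 488/Em 500-530, Acumen) marks blocked Vif-driven A3G degradation.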
Further: nearly all actives have a fitted effect of over 60% in size.
On the % scale 0 is the no-effect control and ±100 the full control effect; potency means the concentration at half of the fitted maximal effect; tags describe the fitted curve by direction and shape.
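Wherever activity, negative = active is given: hits raise eYFP signal because A3G escapes Vif-driven loss.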

Row | Compound | activity, negative = active | Potency
1 | CCOc1cccc(/C=N/NC(=S)Nc2cc(S(=O)(=O)N3CCOCC3)ccc2N2CCOCC2)c1O | inactive: -2.13% | 
2 | O=C(Cc1ccccc1)NC(=S)Nc1ccc(OC(F)F)cc1 | inactive: -3.97% | 
3 | CSc1nnc(SCC(=O)N(C)c2c(N)n(Cc3ccccc3)c(=O)[nH]c2=O)s1 | inactive: 0.679% | 
4 | COc1ccc([C@H]2CC(=O)C=C(c3c(OC)cccc3OC)C2)cc1 |  | inconclusive: 1.12 µM [inhibitor, full curve, poor fit]
5 | COc1ccc(N(C(=O)c2cc(OC)c(OC)c(OC)c2)S(=O)(=O)c2ccc(C)cc2)cc1 |  | inconclusive: 17.8 µM [inhibitor, single point]
6 | Cc1cc(=S)[nH]c2c(C)cccc12 | inactive: -6.21% | 
7 | CCN1C/C(=C/c2cccc([N+](=O)[O-])c2)C(=O)/C(=C/c2cccc([N+](=O)[O-])c2)C1 |  | inconclusive: 0.631 µM [inhibitor, full curve, poor fit]
8 | COc1ccc2c(Cl)c(C(=O)N/N=C3\CCCC(=O)C3)sc2c1 |  | active: 2.82 µM
9 | Cc1nc2ccc(NC(=O)c3ccc(Cl)c(S(=O)(=O)N(C)c4ccccc4)c3)cc2s1 |  | inconclusive: 35.5 µM [inhibitor, single point]
10 | CCOC(=O)c1c(NC(=O)CN2C(=O)NC(C)(c3ccccc3)C2=O)sc(C)c1C (stereo unspecified) |  | inconclusive: 3.16 µM [inhibitor, partial curve, poor fit]
11 | Cc1cc(NC(=O)c2ccc([N+](=O)[O-])o2)ccc1NC(=O)c1ccco1 |  | inconclusive: 17.8 µM [inhibitor, single point]
12 | CC1(CCBr)C(=O)N(c2ccccc2)c2ccccc21 (stereo unspecified) | inactive: -2.79% | 
13 | CC1(C(=O)NCCC(F)(F)F)Cc2c(-c3cccc(C(N)=O)c3)ccnc2O1 (stereo unspecified) |  | inconclusive: 8.91 µM [inhibitor, partial curve]
14 | NC(c1cccc(F)c1)c1nc(-c2ccc(Cl)cc2)cs1 (stereo unspecified) |  | inconclusive: 35.5 µM [inhibitor, single point]
15 | CCN1CCc2c(sc(NC(=O)CSc3ccccc3)c2-c2nc3ccccc3s2)C1 |  | inconclusive: 2.51 µM [inhibitor, partial curve, poor fit]
16 | CCC1=Nc2cc(C(=O)NCCCOC(C)C)ccc2Sc2ccc(C)cc21 |  | inconclusive: 0.708 µM [inhibitor, full curve, poor fit]
17 | COc1cc(/C=N/Nc2ncc(C(F)(F)F)cc2Cl)cc(OC)c1OC |  | inconclusive: 11.2 µM [inhibitor, single point]
18 | CCOC(=O)C1=C(N)n2c(s/c(=C\c3ccco3)c2=O)=C(C(=O)OCC)C1c1ccco1 (stereo unspecified) |  | inconclusive: 7.08 µM [inhibitor, partial curve, poor fit]
19 | O=C(CN1CCOCC1)Nc1ccccc1Sc1ccccc1 | inactive: -8.98% | 
20 | O=C(N/N=C\c1c(O)ccc2ccccc12)c1ccc(O)cc1 |  | inconclusive: 12.6 µM [inhibitor, single point]
21 | CCN(CC)CCNc1nc(-n2nc(C)cc2C)nc2sc3c(c12)CC(C)(C)OC3 | inactive: 3.72% | 
22 | CN(C)c1ccc(C=Nc2cncc3ccccc23)cc1 | inactive: -0.118% | 

Row | Compound | activity, negative = active | Potency
23 | O=C(Nc1nc(-c2ccccn2)cs1)c1ccc(F)c(S(=O)(=O)N2CCOCC2)c1 | inactive: 3.31% | 
24 | CCCCNc1ccc(/C=C2\C=Cc3ccccc32)cc1 | inactive: -1.56% | 
25 | COc1cc(Cc2cc(OC)c(O)c(OC)c2)cc(OC)c1O |  | inconclusive: 10 µM [inhibitor, partial curve, poor fit]
26 | CCOc1cc(C(=O)N/N=C/C(Br)=C/c2ccccc2)cc(OCC)c1OCC |  | inconclusive: 1.78 µM [inhibitor, full curve, poor fit]
27 | COc1ccc2oc(=O)c(-c3nc4ccc(C)cc4[nH]3)cc2c1 |  | inconclusive: 0.631 µM [inhibitor, full curve, poor fit]
28 | Cc1nnc(N2CCC(C(=O)NCc3cccc(Cl)c3)CC2)c2nn(-c3ccccc3)c(C)c12 |  | inconclusive: 35.5 µM [inhibitor, single point]
29 | O=[N+]([O-])/C=C\c1ccc(N2CCOCC2)cc1 |  | inconclusive: 35.5 µM [inhibitor, single point]
30 | O=C1OCCN1C(=O)[C@H]1[C@H](c2ccc(Cl)cc2)C(c2ccccc2)=NN1c1ccc(Br)cc1 | inactive: -2.45% | 
31 | COc1ccc(/C=N/NC(=O)CCSc2nc3ccccc3s2)cc1 |  | inconclusive: 1.58 µM [inhibitor, full curve]
32 | COc1ccc(NS(=O)(=O)c2cc(-c3cnc(C4CC4)o3)ccc2C)cc1 |  | inconclusive: 1.26 µM [inhibitor, full curve, poor fit]
33 | Cc1nc(-c2cccs2)sc1C(=O)NN |  | inconclusive: 35.5 µM [inhibitor, partial curve, poor fit]
34 | CC(=O)c1c(C)c(C)c2n1CCn1c(C)ccc1-2 | inactive: -3.47% | 
35 | CCOC(=O)Nc1ccc2c(c1)N(C(=O)N(C)C)c1ccccc1CC2 |  | inconclusive: 35.5 µM [inhibitor, single point]
36 | CC(C)(C)c1ccc(/C=N/OCC(=O)NCc2ccc(F)cc2)cc1 |  | inconclusive: 15.8 µM [inhibitor, single point]
37 | Cc1cccc(C)c1N/C=C/c1onc(C)c1[N+](=O)[O-] |  | inconclusive: 31.6 µM [inhibitor, single point]
38 | COc1cccc(C(=O)Oc2cc3c4c(c2)C(C)=CC(C)(C)N4C(=O)C3=O)c1 |  | inconclusive: 15.8 µM [inhibitor, single point]
39 | CCOc1ccc(C(=O)C(CCC(CN(C)C)C(=O)c2ccc(OCC)cc2)CN(C)C)cc1 (stereo unspecified) |  | inconclusive: 8.91 µM [inhibitor, partial curve]
40 | O=C(Nc1ccc(Br)cn1)c1ccc(Br)s1 |  | inconclusive: 7.08 µM [inhibitor, partial curve]
41 | Cc1csc2c(N3CCN(C(=O)NC(C)(C)C)CC3)ncnc12 | inactive: 0.105% | 
42 | COc1ccc(-c2[nH]c(-c3ccccc3)nc2SCC(=O)Nc2ccc3c(c2)OCO3)cc1 |  | inconclusive: 20 µM [inhibitor, single point]
43 | O=c1cc(-c2ccccc2)oc2cc(O)c(O)c(O)c12 |  | inactive
44 | Cc1ccc(/C=C/C(=O)c2ccc([N+](=O)[O-])o2)cc1 |  | inconclusive: 3.55 µM [inhibitor, full curve, poor fit]

Row | Compound | activity, negative = active | Potency
45 | Cc1cccc(NC(=O)/C=C/c2ccc([N+](=O)[O-])s2)c1 |  | inconclusive: 7.08 µM [inhibitor, partial curve, poor fit]
46 | COc1cccc2c(Cl)c(CC=C(Cl)Cl)c(C)nc12 | inactive: -0.868% | 
47 | CC1(C)CC(=O)C(C(c2cc([N+](=O)[O-])ccc2Cl)C2C(=O)CC(C)(C)CC2=O)C(=O)C1 |  | inconclusive: 22.4 µM [inhibitor, single point]
48 | O=C(CCl)N=c1sccn1Cc1cccc2ccccc12 |  | inconclusive: 31.6 µM [inhibitor, single point]
49 | Cc1ccc(C2CC(c3cccs3)=NN2C(=O)c2ccco2)o1 (stereo unspecified) |  | inconclusive: 22.4 µM [inhibitor, partial curve, poor fit]
50 | COc1ccc(N2C(=O)NC3CC2(C)Oc2ccccc23)cc1OC (stereo unspecified) |  | inconclusive: 15.8 µM [inhibitor, partial curve, poor fit]
51 | COc1cc(CNc2ccc(C)c(C)c2)cc(OC)c1OC |  | inconclusive: 2.51 µM [inhibitor, full curve, poor fit]
52 | Cc1ccc(S(=O)(=O)Nc2ccc3c(c2)nc(CCN2CCCC2)n3C)cc1 |  | inconclusive: 22.4 µM [inhibitor, single point]
53 | COc1ccc(Sc2ccc(NC(=O)c3ccccc3Cl)cc2C#N)cc1 |  | inconclusive: 10 µM [inhibitor, partial curve, poor fit]
54 | O=C1NC(=S)N(C(=O)c2ccc(F)cc2)/C1=C/c1ccccc1 |  | inconclusive: 20 µM [inhibitor, single point]
55 | Nc1nc(N2CCCCC2)nc2ccccc12 | inactive: 0.0946% | 
56 | COc1cc2sc3ccc(-c4ccc(CN5CCOCC5)cc4)cc3c(=O)c2cc1OC | inactive: 5.45% | 
57 | O=C(Nc1ncc(Cc2ccc(SC(F)F)cc2)s1)c1ccccc1 |  | inconclusive: 1.78 µM [inhibitor, full curve]
58 | CCOC(=O)N1CCC(Nc2nc3ccccc3nc2NS(=O)(=O)c2ccc(Cl)cc2)CC1 | inactive: -2.25% | 
59 | Cc1ccc(C(=O)c2cn(CC(=O)Nc3ccc4c(c3)OCCO4)c3nc(C)ccc3c2=O)cc1 |  | inconclusive: 35.5 µM [inhibitor, single point]
60 | Oc1ccccc1N=Cc1c(O)ccc2ccccc12 |  | inconclusive: 35.5 µM [inhibitor, single point]
61 | COc1ccc(C2(O)CCN(CC(=O)Nc3nc(-c4ccccc4)cs3)CC2)cc1 | inactive: -3.07% | 
62 | CN(C)c1ccc(N=Nc2ccccc2C(=O)OCC(=O)Nc2ccccc2C(F)(F)F)cc1 |  | inconclusive: 14.1 µM [inhibitor, single point]
63 | O=C(O)c1ccc(Cl)c(S(=O)(=O)Nc2ccccc2C(=O)Nc2ccc(Cl)cc2)c1 |  | inconclusive: 35.5 µM [inhibitor, partial curve, poor fit]
64 | CCCN1CCC(=NNc2ccc(S(=O)(=O)N(CC)CC)cc2[N+](=O)[O-])CC1 |  | inconclusive: 7.94 µM [inhibitor, partial curve, poor fit]
65 | Oc1ccc(C2=Nn3c(nnc3-c3ccco3)SC2)cc1O |  | inconclusive: 7.08 µM [inhibitor, full curve]
66 | CN(C)c1ccc(-c2cccc3nccn23)cc1 |  | inconclusive: 11.2 µM [inhibitor, single point]
